Source: PubChem BioAssay AID1671193 (National Center for Advancing Translational Sciences (NCATS), 2021)
Where “and” joins values, the source holds several entries; their conditions need not be identical. Identical values can stand only once. Hit rate of the full screen: of about 150,000 compounds, about 180 (0.12%) were called active. Inconclusive results, whose numbers are uncertain, are shown with a selection of clear calls. Calls come from the whole dose curve; as a rule, active = well fitted cell-killing curve with a large enough effect; inconclusive = small, poorly fitted or top-dose-only effect, or effect the other way; inactive = flat fitted curve, though single readings scatter. A potency beside an inconclusive call is a rough fit, not a confirmed value.

assay: GF-AFC viability counterscreen for inhibitors of alpha-synuclein gene (SNCA) expression; settings: HEK-293-SNCA-luc viability, GF-AFC fluorescence, 24 h; activity change, negative = cytotoxicity: at 57.1 µM (top of the series) unless noted; note: nearly all actives have a fitted effect of over 30% in size;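 for activity change, negative = cytotoxicity: 0% = DMSO-treated cells and -100% = medium-only wells without cells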
In short: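 Cytotoxicity counterscreen: after 24 h compound treatment of genome-edited SNCA-luciferase HEK-293 cells, live-cell protease substrate GF-AFC read by fluorescence after 30 min; activity scaled between DMSO (0%) and medium-only (-100%), curves Hill-fitted.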
Potency is the fitted concentration of half-maximal effect; tags give direction and shape of the fitted curve.

SMILES	activity change, negative = cytotoxicity	Potency
C=C(C)C(=O)OC1CC(CO)CCC/C(CO)=C/C2OC(=O)C(=C)C21 (configuration not stated)	inconclusive: -45% [cytotoxic]	
COc1cccc(NC(=O)c2ccc3c(c2)NC(C)(COc2ccccc2)CO3)c1 (configuration not stated)		inconclusive: 35.5 µM [cytotoxic, partial curve, poor fit]
O=C1C(N2CCN(S(=O)(=O)c3cc(F)cc(F)c3)CC2)CCN1Cc1ccccn1 (configuration not stated)		inconclusive: 39.8 µM [cytotoxic, single point]
Cn1nc(-c2ccncc2)cc1NC(=O)C1CC1	inactive: 9.19% [at 87.6 µM]	
O=C(NCc1nnc2ccc(-c3ccc(Cl)cc3)nn12)c1cccc2[nH]ccc12		inconclusive: 39.8 µM [cytotoxic, partial curve, poor fit]
O=C(CC[C@@H]1CNC(=O)[C@@H]2C[C@H](NC(=O)Nc3ccccc3)CN12)NCc1ccccc1	inactive: 8.74%	
CC1=C[C@@H](CN(C)CCC#N)[C@H](C(C)C)C[C@H]1Cc1nnc(-c2ccc(C)cc2)o1		inconclusive: 56.2 µM [cytotoxic, single point]
CCc1nc2c(c(-c3ccc(Cl)cc3)n1)CCN(Cc1ccc(F)cc1)CC2		inconclusive: 6.31 µM [cytotoxic, single point]
CN(Cc1nc(-c2ccccc2)no1)C(=O)c1cccc(C2CCNC2)c1 (configuration not stated)		inconclusive: 11.2 µM [cytotoxic, partial curve, poor fit]
O=C(N[C@@H]1CN(Cc2cccc(F)c2)C[C@H]1CO)c1ccccc1		inconclusive: 17.8 µM [cytotoxic, partial curve, poor fit]
CCOc1ccc(NC(=O)c2cc3n(n2)CC(c2ccc4c(c2)OCO4)OC3)cc1 (configuration not stated)		inconclusive: 39.8 µM [cytotoxic, single point]
CN(Cc1nccs1)C(=O)CC(c1ccccc1)c1cccc(Cl)c1 (configuration not stated)		inconclusive: 28.2 µM [cytotoxic, single point]
Cc1ccc(-c2cc(N3CCCN(C(=O)Cc4ccccc4Cl)CC3)n[nH]2)cc1C	inactive: -18.2%	
Clc1ccccc1CNc1nc2ccccc2c2nc(-c3cccnc3)nn12		inconclusive: 7.94 µM [cytotoxic, single point]
Cc1ccc(NC(=O)N2Cc3[nH]cnc3C[C@H]2c2nc(C(C)C)no2)cc1	inactive: -1.23% [at 87.6 µM]	
Cc1nn(C)c(=O)n1C1CCN(C(=O)c2ccco2)CC1		inconclusive: 8.91 µM [cytotoxic, single point]
CN1CCC(Nc2ncc(C(C)(C)C(=O)O)c(N3CCOCC3)n2)CC1	inactive: 4.91%	
Cc1ccc(NC(=O)C2CCN(C(=O)c3ncn4c3COC(c3ccccc3)C4)CC2)cc1 (configuration not stated)	inactive: 6.03%	
O=C(C1CCN(c2nc(-c3ccccc3)nc3c2CCC3)CC1)N1CCC[C@H]1CO	inactive: -13.8%	
CCN(Cc1ccncc1)C(=O)CC(c1ccccc1)c1ccc2c(c1)OCO2 (configuration not stated)		inconclusive: 39.8 µM [cytotoxic, single point]
CS(=O)(=O)CCN1CCN(C(=O)c2cccc(-c3ncc[nH]3)c2)CC1	inactive: -12.6%	

SMILES	activity change, negative = cytotoxicity	Potency
Nc1nc(N)c2nc(-c3cccc(O)c3)c(-c3cccc(O)c3)nc2n1		inconclusive: 5.41 µM [cytotoxic, full curve]
CNC(=O)CCc1ccc2c(c1)CN(C(C)=O)CCO2	inactive: -2.02% [at 12.5 µM]	
Cc1cccc(Cn2c(SCc3ccc(C(=O)NC4CCCCC4)cc3)nc3cccnc32)c1		inconclusive: 25.1 µM [cytotoxic, single point]
O=C(C1CCCC1)N1CC2(CCN(CC3CC3)C2)Cc2ccccc21 (configuration not stated)		inconclusive: 44.7 µM [cytotoxic, single point]
COC(=O)c1ccc(NC(=O)CSc2cn(CC(=O)N3CCCCCC3)c3ccccc23)cc1		inconclusive: 39.8 µM [cytotoxic, single point]
CC(Oc1cccc(Cl)c1)C(=O)NCc1nnc2ccc(-c3ccccc3)nn12 (configuration not stated)	inactive: 13.1%	
CC(C)c1noc(C2Cc3ccccc3N2C(=O)Nc2ccc3c(c2)OCCO3)n1 (configuration not stated)		inconclusive: 39.8 µM [cytotoxic, partial curve, poor fit]
C=C(C(=O)O)C1CC2=C(C)C(=O)CC2C(C)CC1O (configuration not stated)		inconclusive: 37.7 µM [cytotoxic, single point]
C[C@H](Cc1ccc(O)c(O)c1)[C@@H](C)Cc1ccc(O)c(O)c1		inconclusive: 42.9 µM [cytotoxic, partial curve, poor fit] and inconclusive: 15.8 µM [cytotoxic, partial curve, poor fit]
O=C(NC1CCN(c2cc(-c3ccc(Cl)cc3)[nH]n2)CC1)c1cccnc1	inactive: 2.72%	
C=CCNC(=O)N[C@H]1CO[C@H]2[C@@H]1OC[C@@H]2Nc1nccc(C2CCCC2)n1		inconclusive: 31.6 µM [cytotoxic, partial curve, poor fit]
COCCCn1c(=N)c(S(=O)(=O)c2ccccc2)cc2c(=O)n3cc(C)ccc3nc21		inconclusive: 7.94 µM [rising, single point]
O=C([C@@H]1C[C@H](F)CN1C(=O)Nc1cccc(Br)c1)N1CCCCC1		inconclusive: 2.82 µM [cytotoxic, full curve, poor fit]
Cc1nc(-c2c3n(c(=O)n(Cc4ccc(Cl)cc4)c2=O)CCCC3)no1	inactive: 7.06%	
Cc1c(CN2CCCC(COc3ccccc3C(=O)N3CCC(C)CC3)C2)cnn1C (configuration not stated)		inconclusive: 39.8 µM [cytotoxic, single point]
CC1(C)Cc2c(sc(NC(=S)NC(=O)c3ccccc3)c2C(=O)O)CO1	inactive: 10.6%	
O=C(CCNc1c(-c2ccccc2)nc2cnccn12)NC1CCCC1		inconclusive: 28.2 µM [rising, partial curve]
OC[C@@H]1CN(C2CCC2)C[C@H]1c1nc(-c2ccncc2)no1	inactive: -5.85%	
Cc1nc(CN2C[C@H](C(=O)NCc3cccc(F)c3)C[C@@H]2c2ccc(F)cc2)cs1	inactive: -28.1% [at 87.6 µM]	
NCCc1ccc(O)c(O)c1	inconclusive: -35% [cytotoxic]	
COc1ccc(C(=O)N2CCc3nc(C(C)C)nc(-c4ccc(O)cc4)c3CC2)cc1		inconclusive: 14.1 µM [cytotoxic, partial curve, poor fit]
